Experimental data from PMC6919601, “Identification of Plasmodium dipeptidyl aminopeptidase allosteric inhibitors by high throughput screening” (PLoS ONE, 2019).
The whole screen tested about 110,000 compounds, of which about 230 (0.21%) showed an effect of 50% or more. The list shows a part of the results.

Target: DPAP1 (Plasmodium falciparum, UniProt Q8IIJ9)
Test: primary screen, percent inhibition; read by cleavage of a fluorogenic dipeptide substrate; higher = more effect of the substance
Parameters: species or system P. falciparum D10 trophozoite lysates; single well
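Further: 30 min substrate incubation versus DMSO and 10 µM JCP410 controls.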

Chain of DPAP1 (Q8IIJ9 whole entry, looked up): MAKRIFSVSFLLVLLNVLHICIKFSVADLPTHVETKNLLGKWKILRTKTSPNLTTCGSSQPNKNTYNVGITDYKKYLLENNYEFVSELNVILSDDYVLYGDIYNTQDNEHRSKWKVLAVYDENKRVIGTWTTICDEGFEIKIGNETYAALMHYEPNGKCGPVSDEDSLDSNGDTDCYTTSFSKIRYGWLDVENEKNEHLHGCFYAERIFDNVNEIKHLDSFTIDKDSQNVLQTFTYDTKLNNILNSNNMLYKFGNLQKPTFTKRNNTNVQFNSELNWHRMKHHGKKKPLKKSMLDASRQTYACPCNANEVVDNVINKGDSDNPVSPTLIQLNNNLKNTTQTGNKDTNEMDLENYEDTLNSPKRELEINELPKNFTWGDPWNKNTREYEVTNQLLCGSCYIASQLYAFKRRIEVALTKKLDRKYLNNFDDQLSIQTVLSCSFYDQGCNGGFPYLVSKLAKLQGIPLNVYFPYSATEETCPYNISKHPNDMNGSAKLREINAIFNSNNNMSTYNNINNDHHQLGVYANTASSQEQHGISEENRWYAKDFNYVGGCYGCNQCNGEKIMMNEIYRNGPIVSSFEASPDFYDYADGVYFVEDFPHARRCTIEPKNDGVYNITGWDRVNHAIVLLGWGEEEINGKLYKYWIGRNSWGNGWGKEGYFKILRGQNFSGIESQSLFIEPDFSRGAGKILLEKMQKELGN

**Q.** How did the “% Inhibition @ 10 uM” value turn out when `CC(C)(C)OC(=O)N1CCC(c2nc(O)c3nnn(Cc4ccccc4Cl)c3n2)CC1` was run?
**A.** Its value is -1.15%.

**Q.** How did the “% Inhibition @ 10 uM” value turn out when `CCNc1nc(NCC)nc(Oc2ccc(C(=O)OCC)cc2)n1` was run?
**A.** The value was -4.7%.

**Q.** With `CCOc1cc(C)c(C)cc1S(=O)(=O)n1ccnc1C` as the compound, how does the “% Inhibition @ 10 uM” value read?
**A.** Its value is 0.245%.

**Q.** For `CN(C)c1ccc(CN2CCN(c3ccccc3F)CC2)cc1`, which “% Inhibition @ 10 uM” value is on record?
**A.** The value was -2.7%.

**Q.** Which “% Inhibition @ 10 uM” value does the source give for `CCc1ccc(C(=O)c2cn(CC(N)=O)c3nc(C)ccc3c2=O)cc1` here?
**A.** The value was -1.34%.

**Q.** Which “% Inhibition @ 10 uM” value does the source give for `CCOc1cc(/C=C2\SC(=O)N(C)C2=O)c(Br)cc1O` here?
**A.** Its value is 0.484%.

**Q.** How did the “% Inhibition @ 10 uM” value turn out when `COc1ccccc1N(CC(=O)N(C)Cc1ccccc1)S(=O)(=O)c1ccccc1` was run?
**A.** The value was -3.78%.

**Q.** `CC(C)Nc1nc(Cl)nc(NC(C)C)n1` was tested. Which “% Inhibition @ 10 uM” value did it give?
**A.** The value was 2.22%.

**Q.** For `CC(=O)Nc1ccc(N(C)C(C)(C)C)cc1`, which “% Inhibition @ 10 uM” value is on record?
**A.** The value was -6.41%.

**Q.** How did the “% Inhibition @ 10 uM” value turn out when `O=C(COc1ccc(Cl)cc1)NCCCn1ccnc1` was run?
**A.** Its value is 3.56%.

**Q.** With `CCN1CCN(CC(O)COc2ccc(C)c(C)c2)CC1` (stereo not shown) as the compound, how does the “% Inhibition @ 10 uM” value read?
**A.** The value was -4.16%.

**Q.** Which “% Inhibition @ 10 uM” value does the source give for `CCOc1ccc2ncc(S(=O)(=O)c3ccc(C(C)(C)C)cc3)c(O)c2c1` here?
**A.** The value was -5.25%.

**Q.** How did the “% Inhibition @ 10 uM” value turn out when `CCn1ncc(C2=NOC(C(=O)Nc3cccnc3Cl)C2)c1C` (stereo not shown) was run?
**A.** The value was -1.37%.

**Q.** For `CC1=C(C(=O)Nc2cccnc2)C(c2ccccn2)n2nnnc2N1` (stereo not shown), which “% Inhibition @ 10 uM” value is on record?
**A.** Its value is 6.7%.

**Q.** For `CCOC(=O)CN1CC1C(=O)OCC` (stereo not shown), which “% Inhibition @ 10 uM” value is on record?
**A.** The value was -5.2%.

**Q.** How did the “% Inhibition @ 10 uM” value turn out when `COc1ccc(-c2cc(C(F)(F)F)n3ncc(C(=O)NC(C)c4ccccc4)c3n2)cc1OC` (stereo not shown) was run?
**A.** Its value is -3.33%.

**Q.** For `Cc1ccc2nc3c(O)n(CC(=O)N4CCC5(CC4)OCCO5)ncc-3c2c1`, which “% Inhibition @ 10 uM” value is on record?
**A.** Its value is -2.15%.

**Q.** For `FC(F)(F)c1ccccc1CN1CCN(c2ccccc2)CC1`, which “% Inhibition @ 10 uM” value is on record?
**A.** The value was -0.192%.

**Q.** For `C=CCNC(=O)/C(=C/c1ccc(OC)cc1)NC(=O)c1cccc(Br)c1`, which “% Inhibition @ 10 uM” value is on record?
**A.** Its value is -2.64%.

**Q.** For `CC(C)c1ccc(OCC(O)CN2CCOCC2)cc1` (stereo not shown), which “% Inhibition @ 10 uM” value is on record?
**A.** Its value is -5.71%.

**Q.** For `O=C1NC(=O)N(c2cccc(Cl)c2)C(=O)/C1=C\Nc1ccccc1C(=O)O`, which “% Inhibition @ 10 uM” value is on record?
**A.** Its value is -2.77%.

**Q.** With `Cc1nn(CC(=O)NCCc2cccs2)c(=O)c2nn(-c3ccccc3)c(C)c12` as the compound, how does the “% Inhibition @ 10 uM” value read?
**A.** The value was 0.58%.

**Q.** How did the “% Inhibition @ 10 uM” value turn out when `O=C1NCCCc2nc(N3CCOCC3)sc21` was run?
**A.** Its value is 0.392%.

**Q.** `CCN1CCCC1CNC(=O)Cn1ncc2c3ccccc3n(C)c2c1=O` (stereo not shown) was tested. Which “% Inhibition @ 10 uM” value did it give?
**A.** Its value is -3.67%.

**Q.** Which “% Inhibition @ 10 uM” value does the source give for `CCO/C(O)=C1\C(C)=NC2=C(C(=O)c3ccccc32)C1c1ccc2c(c1)OCO2` (stereo not shown) here?
**A.** The value was 2.3%.

**Q.** How did the “% Inhibition @ 10 uM” value turn out when `Cc1ccc(C#N)c(SC(C)c2ccccc2)n1` (stereo not shown) was run?
**A.** The value was 13.6%.

**Q.** For `COC(=O)c1ccc(CSc2ccccc2C)o1`, which “% Inhibition @ 10 uM” value is on record?
**A.** The value was 5.07%.

**Q.** With `c1ccc(C2CCC(Nc3ccc4c(c3)OCO4)CC2)cc1` (stereo not shown) as the compound, how does the “% Inhibition @ 10 uM” value read?
**A.** Its value is 4.28%.

**Q.** Which “% Inhibition @ 10 uM” value does the source give for `Cc1ccc(-c2cc(C(F)F)nc(NCC3CCCO3)n2)cc1` (stereo not shown) here?
**A.** Its value is -1.73%.

**Q.** Which “% Inhibition @ 10 uM” value does the source give for `c1nc(CCNC2CCCCCC2)c[nH]1` here?
**A.** The value was 1.57%.

**Q.** With `CCc1ccccc1NS(=O)(=O)c1cc(Cl)ccc1Cl` as the compound, how does the “% Inhibition @ 10 uM” value read?
**A.** Its value is -1.22%.

**Q.** How did the “% Inhibition @ 10 uM” value turn out when `Cc1oc(C)c2c(=O)cc(-c3ccc4c(c3)OCO4)cc(OC(=O)c3ccccc3)c12` was run?
**A.** The value was 6.85%.

**Q.** With `CCOC(=O)c1c(N2C(=O)c3ccccc3C2=O)sc(C)c1C` as the compound, how does the “% Inhibition @ 10 uM” value read?
**A.** Its value is 1.08%.

**Q.** How did the “% Inhibition @ 10 uM” value turn out when `COc1ccc(-n2nnnc2SCC(=O)Nc2nccs2)cc1` was run?
**A.** Its value is -1.6%.

**Q.** With `Cn1c(-c2ccccc2)cc(=O)c2ccccc21` as the compound, how does the “% Inhibition @ 10 uM” value read?
**A.** The value was -1.96%.

**Q.** `CN(Cc1ccco1)C(=O)c1nn(C)c2c1CSc1ccccc1-2` was tested. Which “% Inhibition @ 10 uM” value did it give?
**A.** The value was 1.68%.

**Q.** `Cc1ccccc1S(=O)(=O)Cc1ccc(C(=O)NCc2cccs2)o1` was tested. Which “% Inhibition @ 10 uM” value did it give?
**A.** Its value is 3.77%.

**Q.** Which “% Inhibition @ 10 uM” value does the source give for `C/C(Cl)=C/Cn1c(SCCC(C)C)nc2c1c(=O)[nH]c(=O)n2C` here?
**A.** The value was 8.62%.

**Q.** Which “% Inhibition @ 10 uM” value does the source give for `CN(Cc1cnn(C)c1)C(=O)C1CCCCC1C(=O)O` (stereo not shown) here?
**A.** Its value is -2.76%.

**Q.** With `c1ccc(C2CCC(NCCCn3ccnc3)CC2)cc1` (stereo not shown) as the compound, how does the “% Inhibition @ 10 uM” value read?
**A.** Its value is 3.48%.

**Q.** How did the “% Inhibition @ 10 uM” value turn out when `O=C(c1ccc([N+](=O)[O-])cc1)N1CCN(c2ccc(F)cc2)CC1` was run?
**A.** Its value is 6.6%.

**Q.** How did the “% Inhibition @ 10 uM” value turn out when `CC1CCN(c2oc(COc3cccc(Cl)c3)nc2C#N)CC1` was run?
**A.** The value was -8.55%.

**Q.** `Cc1ccc(S(=O)(=O)NCCC2CCCN2C)cc1` (stereo not shown) was tested. Which “% Inhibition @ 10 uM” value did it give?
**A.** The value was 4.32%.

**Q.** With `CCn1cc(C(=O)N2CC(C)CC(C)C2)c2cc(OC)c(OC)cc2c1=O` (stereo not shown) as the compound, how does the “% Inhibition @ 10 uM” value read?
**A.** The value was 1.23%.

**Q.** With `CCCOc1ccccc1C1NC(=O)NC(C)=C1C(=O)OC(C)C(C)(C)C` (stereo not shown) as the compound, how does the “% Inhibition @ 10 uM” value read?
**A.** The value was 4.35%.

**Q.** With `CNC(=O)CCc1cn(Cc2ccccc2C)c2ccccc12` as the compound, how does the “% Inhibition @ 10 uM” value read?
**A.** Its value is 0.581%.

**Q.** Which “% Inhibition @ 10 uM” value does the source give for `COc1ccc(-c2csc(N3C(=O)c4ccc(OC)c(OC)c4C3=O)n2)cc1` here?
**A.** The value was 15.2%.

**Q.** Which “% Inhibition @ 10 uM” value does the source give for `CC(C)N1C(=O)c2ccc(N3C(=O)c4ccc(Br)cc4C3=O)cc2C1=O` here?
**A.** Its value is 9.02%.

**Q.** Which “% Inhibition @ 10 uM” value does the source give for `COc1ccc2c(c1)OC1(C)CC2C(S(=O)(=O)c2ccc(C(C)(C)C)cc2)C(=O)N1` (stereo not shown) here?
**A.** Its value is -0.72%.

**Q.** With `CCC(C)NC(=O)CSc1cc(C)nc2c(-c3ccccc3OC)c(C)nn12` (stereo not shown) as the compound, how does the “% Inhibition @ 10 uM” value read?
**A.** The value was -1.7%.

**Q.** Which “% Inhibition @ 10 uM” value does the source give for `Nn1c(CSCCc2ccccc2)nnc1CSCCc1ccccc1` here?
**A.** The value was -2.5%.

**Q.** `CCOc1cc2c(cc1OCC)C(c1ccccc1OC)NCC2` (stereo not shown) was tested. Which “% Inhibition @ 10 uM” value did it give?
**A.** The value was 3.29%.

**Q.** `Cc1ccccc1C(=O)NCCNC(=O)c1ccccc1C` was tested. Which “% Inhibition @ 10 uM” value did it give?
**A.** Its value is 1.93%.

**Q.** With `Cc1ccc(C)c(N2CCN(C(=O)c3csc4ccccc34)CC2)c1` as the compound, how does the “% Inhibition @ 10 uM” value read?
**A.** Its value is -1.41%.

**Q.** With `COc1cc2nc(C)sc2cc1SC` as the compound, how does the “% Inhibition @ 10 uM” value read?
**A.** The value was 0.00178%.

**Q.** How did the “% Inhibition @ 10 uM” value turn out when `Cc1cc(C(F)(F)F)n2ncc(C(=O)N3CCCCCC3)c2n1` was run?
**A.** Its value is 6.5%.

**Q.** With `CCCCn1c(-c2ccc(OCC)cc2)cnc1NCc1cc(OC)c(O)c(OC)c1` as the compound, how does the “% Inhibition @ 10 uM” value read?
**A.** The value was 2.31%.

**Q.** `CC(C)Oc1ccc(/C=C2/Sc3ccccc3C2=O)cc1` was tested. Which “% Inhibition @ 10 uM” value did it give?
**A.** The value was -5.96%.

**Q.** How did the “% Inhibition @ 10 uM” value turn out when `CC1CCN(S(=O)(=O)c2cccc3nonc23)CC1` was run?
**A.** Its value is 2.65%.

**Q.** How did the “% Inhibition @ 10 uM” value turn out when `N#CC1=C(N)OC2=C(C(=O)CC(c3ccccc3)C2)C1c1cccc(Cl)c1` (stereo not shown) was run?
**A.** The value was 11.3%.

**Q.** For `CC(C)c1ccc(C2c3c(-c4ccccc4O)n[nH]c3C(=O)N2CCCO)cc1` (stereo not shown), which “% Inhibition @ 10 uM” value is on record?
**A.** The value was 2.02%.

**Q.** `Cc1cccc(-c2nnn3c2nc(O)c2ccccc23)c1` was tested. Which “% Inhibition @ 10 uM” value did it give?
**A.** Its value is -7.62%.

**Q.** `O=C(CCn1ccc2cc(S(=O)(=O)N3CCCC3)ccc21)NCc1cccnc1` was tested. Which “% Inhibition @ 10 uM” value did it give?
**A.** Its value is -0.846%.

**Q.** How did the “% Inhibition @ 10 uM” value turn out when `C/C=C/COC(=O)C1=C(C)NC(=O)NC1c1ccccc1` (stereo not shown) was run?
**A.** Its value is -2.2%.

**Q.** `CCC(=O)N(c1ccccc1)C1CC(C)Nc2ccccc21` (stereo not shown) was tested. Which “% Inhibition @ 10 uM” value did it give?
**A.** Its value is -2.12%.

**Q.** `COc1ccc(C(=O)Nc2cc(C(F)(F)F)ccc2Br)cc1[N+](=O)[O-]` was tested. Which “% Inhibition @ 10 uM” value did it give?
**A.** The value was -6.18%.

**Q.** With `O=C(c1ccc(C(=O)N2CCc3ccccc3C2)cc1)N1CCc2ccccc2C1` as the compound, how does the “% Inhibition @ 10 uM” value read?
**A.** The value was -2.78%.
